PubChem BioAssay AID686979 (National Center for Advancing Translational Sciences (NCATS), 2013)
The whole screen tested about 420,000 compounds, of which about 50,000 (12%) were called active. This list was built around the results that the source calls inconclusive (neither active nor inactive); the mix of calls is not that of the screen. Calls come from the whole dose curve; as a rule, active = well fitted inhibition curve with a large enough effect; inconclusive = small, poorly fitted or top-dose-only effect; inactive = flat fitted curve, though single readings scatter. Potencies of inconclusive entries are left out as doubtful fits.

Assay: qHTS for Inhibitors of human tyrosyl-DNA phosphodiesterase 1 (TDP1): qHTS in cells in presence of CPT; note: nearly all actives have a fitted effect of over 55% in size
Settings: chicken DT40 Tdp1-/-;hTDP1 cells + 20 nM CPT, ATP luminescence, 48 h; activity change, negative = growth inhibition: at 46.2 µM (top of the series) unless noted
Procedure, shortened: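 Chicken DT40 Tdp1-/- cells complemented with human TDP1, 400 cells/well, exposed to compounds plus 20 nM camptothecin for at least 48 h at 37 C; viability read as ATP content by CellTiter-Glo luminescence.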
% is set by controls: 0 for no effect and ±100 for the full control effect; potency is the fitted concentration of half-maximal effect; tags give direction and shape of the fitted curve.

| Structure (SMILES) | Potency | activity change, negative = growth inhibition |
| --- | --- | --- |
| CN(C)c1ccc(/C=N/NC(=O)C(=O)/C=C2\NC3(CCCC3)Cc3ccccc32)cc1 | active: 25.9 µM |  |
| Cc1ccc2nc(NC(=O)c3ccc(Cl)s3)sc2c1 | active: 20.6 µM |  |
| O=C(c1cccc(S(=O)(=O)N2CCc3ccccc32)c1)N1CCOCC1 |  | inactive: -29.9% |
| Fc1ccc2nc(Nc3nc4cc5c(cc4s3)OCO5)sc2c1 | inconclusive [inhibitor, single point] |  |
| COc1ccc(/C=C/C(=O)Oc2ccc(C=O)cc2OC)cc1 |  | inactive: -18.8% |
| COc1cccc(C(=O)Nc2cc3c(cc2Br)OCCCO3)c1 |  | inactive: -23% |
| CCC(=O)Nc1cccc(-c2ccc(N3CCC(C)CC3)nn2)c1 | inconclusive [inhibitor, single point] |  |
| CC1CCCN(C(=O)c2cccc(S(=O)(=O)N3CCCC3)c2)C1 (stereo not given) |  | inactive: -19.5% |
| O=C1CSC(=S)N1c1cccc(F)c1 | inconclusive [inhibitor, single point] |  |
| Cc1ccc2[nH]c(=O)c(C(c3nnnn3CC3CCCO3)N3CCCc4ccccc43)cc2c1 (stereo not given) | inconclusive [inhibitor, single point] |  |
| CCOC(=O)C1CCN(C(=S)Nc2ccc(C)cc2)CC1 |  | inactive: -9.95% |
| O=C(c1ccc([N+](=O)[O-])o1)N1CCN(c2nc3c(F)cc(F)cc3s2)CC1 | inconclusive [inhibitor, single point] |  |
| O=C(C(Sc1ccccc1)c1ccccc1)N1CCN(c2ccccc2F)CC1 (stereo not given) | inconclusive [inhibitor, single point] |  |
| CCN(CC)c1ccc(NC(=S)NCC2CCCO2)cc1 (stereo not given) | inconclusive [inhibitor, partial curve, poor fit] |  |
| CNS(=O)(=O)c1cn(CC(=O)NCc2cccc(OC)c2)cc1S(=O)(=O)NC |  | inactive: 14.5% |
| COc1ccc2c(c1)O[C@@]1(CCCC[C@@H]1C)CC2=O | inconclusive [inhibitor, single point] |  |
| O=C(C[C@H]1C[C@H](C(=O)N2CCCCC2)[C@@]2(CCc3ccccc3)c3[nH]c4ccc(Cl)cc4c3CCN2C1=O)NCCN1CCOCC1 |  | inactive: -9.31% |
| Cc1ccc(C(=O)Nc2ccc3c(c2)OCCO3)cc1 | inconclusive [inhibitor, single point] |  |
| O=C(NC1CCN(Cc2ccccc2)CC1)c1ccc(N2CC3CC(C2)c2cccc(=O)n2C3)c([N+](=O)[O-])c1 (stereo not given) | inconclusive [inhibitor, single point] |  |
| COCc1c(C(=O)N2CCN(C)CC2)cnn1-c1ncc2c(n1)-c1ccccc1CCC2 |  | inactive: 7.04% [at 9.04 µM] |
